Experimental data from PubChem BioAssay AID624417 (National Center for Advancing Translational Sciences (NCATS), 2012).
The whole screen tested about 410,000 compounds, of which about 6,400 (1.6%) were called active. Inconclusive results, whose numbers are uncertain, are shown with a selection of clear calls. Calls follow the shape of the dose curve; as a rule, active = well fitted inhibition curve with a large enough effect; inconclusive = small, poorly fitted or top-dose-only effect; inactive = no such curve, though single readings can be large or run the other way. Potencies of inconclusive entries are left out as doubtful fits.

What follows are compounds tested against Glucagon-like peptide 1 receptor (Homo sapiens) (UniProt P43220) (assay: qHTS of GLP-1 Receptor Inverse Agonists (Inhibition Mode)). Conditions: HEK293 GLP-1R CRE-luciferase, luminescence, 24 h, GLP-1R form is constitutively active; activity change, negative = inhibition: at 38.3 µM (top of the series) unless noted.
Sequence of UniProt P43220 (P43220 whole entry, looked up): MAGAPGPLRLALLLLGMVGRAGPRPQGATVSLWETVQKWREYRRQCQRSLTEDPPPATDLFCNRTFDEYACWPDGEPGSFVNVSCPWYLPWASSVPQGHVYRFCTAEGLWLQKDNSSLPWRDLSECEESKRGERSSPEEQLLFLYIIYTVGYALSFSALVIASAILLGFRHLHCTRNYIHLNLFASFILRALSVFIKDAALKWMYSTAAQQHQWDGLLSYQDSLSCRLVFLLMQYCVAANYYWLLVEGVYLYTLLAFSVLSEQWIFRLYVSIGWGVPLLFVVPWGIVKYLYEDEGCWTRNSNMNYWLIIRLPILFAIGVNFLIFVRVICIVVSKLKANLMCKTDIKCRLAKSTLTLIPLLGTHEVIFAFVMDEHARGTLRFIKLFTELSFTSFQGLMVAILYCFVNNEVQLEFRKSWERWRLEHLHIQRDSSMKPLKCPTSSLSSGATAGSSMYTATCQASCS
Summary of the method: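 Inverse agonists were sought by their lowering of basal cAMP reporter luciferase output in HEK293 cells stably carrying constitutively active human GLP-1R, after 24 h compound treatment.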
% is scaled to controls: 0 for no effect and ±100 for the full control effect; potency is read from the fitted curve at half-maximal effect; tags tell the direction and shape of the fitted curve.
Also: nearly all actives have a fitted effect of over 55% in size.

| Structure (SMILES) | Potency | activity change, negative = inhibition |
| --- | --- | --- |
| CC1CCc2sc(NC(=O)C3CC(Cl)=CCC3C(=O)O)c(C#N)c2C1 (configuration not stated) | inconclusive [inhibitor, single point] | – |
| CCCCOc1ccc(S(=O)(=O)NC(=O)C2(C)CCN2C(=O)CCc2ccccc2)cc1 (configuration not stated) | – | inactive: 9.64% |
| CCOC(=O)C1=C(C)NC(C)=C(C(=O)OC)C1c1cccc([N+](=O)[O-])c1 (configuration not stated) | inconclusive [inhibitor, partial curve, poor fit] | – |
| Cc1nnc(NC(=O)CSc2nccn2Cc2ccc(Cl)cc2)s1 | – | inactive: 19.7% |
| Cc1cccc(COCC(Cc2ccccc2)N2CCN(C(=O)c3ccc(Cl)c(Cl)c3)CCC2=O)c1 (configuration not stated) | inconclusive [inhibitor, partial curve, poor fit] | – |
| Clc1nnc2ccc(-c3ccccc3)nn12 | – | inactive: 49.6% |
| CCOC(=O)C1=CCN(S(=O)(=O)c2ccccc2Cl)C1c1ccc(Cl)c(Cl)c1 (configuration not stated) | inconclusive [inhibitor, single point] | – |
| Cc1cc(-n2c(C)cc(C(=O)CN3C(=O)NC4(CCCCCC4)C3=O)c2C)no1 | inconclusive [inhibitor, partial curve, poor fit] | – |
| Cc1cc(C)c(S(=O)(=O)N2CCC(N3CCN(Cc4ccccc4)C(=O)C3=O)CC2)c(C)c1 | – | inactive: 3.82% |
| Cc1occc1C(=O)NCCc1cccc(Cl)c1 | – | inactive: -11.6% |
| CCCCNC(=O)C1CCN(c2nc3ccccc3nc2C(F)(F)F)CC1 | – | inactive: 4.86% |
| COc1ccc(OCC(O)CN2CCN(CC(O)COc3ccc(OC)cc3)CC2)cc1 (configuration not stated) | – | inactive: -5.42% |
| Cc1ccc(NC(=S)NC2CCCC2)cc1C | inconclusive [inhibitor, single point] | – |
| CCC(C)[C@@H](CN(N=O)[C@@H](Cc1ccccc1)CN(C)N=O)N(CCc1ccccc1)N=O (some centres not stated) | inconclusive [inhibitor, single point] | – |
| Cn1nc(C(=O)NCc2ccccc2Cl)c2c1-c1ccccc1S(=O)(=O)C2 | inconclusive [inhibitor, full curve, poor fit] | – |
| CC(O)(c1ccc(Cl)cc1)C(c1ccccc1)c1ccccn1 (configuration not stated) | inconclusive [inhibitor, partial curve, poor fit] | – |
| O=C1NN(c2cccc(Br)c2)C(=O)/C1=C/c1ccc(-c2cc([N+](=O)[O-])ccc2O)o1 | inconclusive [inhibitor, full curve, poor fit] | – |
| O=C(c1ccc(Cl)c(Cl)c1)N1CCN(c2ccccn2)CC1 | – | inactive: 0% |
| COc1ccc(CS(=O)(=O)/C(Cl)=C(/Cl)C(=O)Nc2ccc(OC)nc2)cc1 | inconclusive [inhibitor, full curve, poor fit] | – |
| COC(=O)C(C)N(C(=O)c1cccc2ccccc12)c1c(C)cccc1C (configuration not stated) | inconclusive [inhibitor, partial curve, poor fit] | – |
| COc1ccc(NC(=S)NNC(=O)c2ccco2)c(OC)c1 | – | inactive: 19.3% |

| Structure (SMILES) | Potency | activity change, negative = inhibition |
| --- | --- | --- |
| CC1(C(=O)Nc2cccc(Oc3ccccc3)c2)Cc2c(-c3ccc4c(c3)OCO4)ccnc2O1 (configuration not stated) | inconclusive [inhibitor, full curve, poor fit] | – |
| CCOC(=O)CCCNC(=O)c1cncc(Br)c1 | – | inactive: -2.4% |
| Cc1cccc(CNC(=O)c2ccc3oc(=O)n(Cc4ccccc4)c3c2)c1 | inconclusive [inhibitor, single point] | – |
| CSc1nc2cc(S(=O)(=O)N3CCCCC3)ccc2s1 | inconclusive [inhibitor, partial curve, poor fit] | – |
| CCOc1ccc(NC(=O)CN(C)C(=O)CCCOc2ccc(Cl)c(C)c2)cc1OCC | inconclusive [inhibitor, partial curve, poor fit] | – |
| O=C1C(Cl)=C(NCCN2CCOCC2)C(=O)c2ccccc21 | – | inactive: 9.16% |
| COc1ccc([C@@H]2[C@@H]3C(=O)N(C(C)(C)C)C(=O)[C@@H]3[C@]3(Cc4ccc(Cl)cc4)C(=O)N(c4cccc(C)c4)C(=O)N23)cc1 | inconclusive [inhibitor, full curve] | – |
| O=C(/C=C/c1cccc([N+](=O)[O-])c1)NCCSCc1c(Cl)cccc1Cl | inconclusive [inhibitor, single point] | – |
| CC1CN(CCOc2ccccc2C(C)C)CC(C)O1 (configuration not stated) | – | inactive: -21.4% |
| Cc1cc(C)c(S(=O)(=O)N2CCc3ccccc32)c(C)c1 | inconclusive [inhibitor, single point] | – |
| Cc1cccc(NC(=O)C2CCN(S(=O)(=O)c3cccc4cccnc34)CC2)c1 | inconclusive [inhibitor, single point] | – |
| CCOc1cc(C(=O)OCC(=O)N(C)c2ccccc2)cc(OCC)c1OCC | inconclusive [inhibitor, partial curve, poor fit] | – |
| COc1cccc(CNc2nc(NCC3CC3)nc3ccsc23)c1OC | inconclusive [inhibitor, partial curve, poor fit] | – |
| CCc1sc(C(=O)Nc2ccccc2N2CCOCC2)cc1C | inconclusive [inhibitor, single point] | – |
| CCOc1ccc(-c2nnc(-c3snc(-c4ccc(F)cc4)c3N=CN(C)C)o2)cc1 | – | inactive: -3.19% |
| C/C(=N\NC(=O)c1ccc(Cl)cc1)c1ccccn1 | inconclusive [inhibitor, full curve, poor fit] | – |
| COc1ccc(NC(=O)c2cc(C3CCCCN3C(=O)OCc3ccccc3)on2)c(C)c1 (configuration not stated) | inconclusive [inhibitor, single point] | – |
| Cc1ccc(NC(=O)C2CC(=O)N(Cc3ccccc3)C2)cc1S(=O)(=O)N1CCCCCC1 (configuration not stated) | inconclusive [inhibitor, single point] | – |
| CCCCS(=O)CC(COc1ccc(Cl)cc1)OC(=O)c1ccccc1 (configuration not stated) | inconclusive [inhibitor, single point] | – |
| Cc1ccc(/C=N/NC(=O)c2cc3ccccc3cc2O)o1 | inconclusive [inhibitor, single point] | – |
| Cc1cccc(C(=O)N2CC(=O)Nc3ccc(F)cc3C2c2ccc(F)cc2)c1 (configuration not stated) | inconclusive [inhibitor, partial curve, poor fit] | – |
